Experimental findings from patent publication US12692294B2, “Engineered NRG-1 variants with improved selectivity toward ErbB4 but not against ErbB3” (Amgen Inc., priority 2021, dated 2026) are described below.

Numbering of substitutions follows the chain as printed. Numbers in names are those of the source. Unless stated, no cut-off for active and inactive is given here. Where “and” joins values, the source holds several entries; their conditions need not be identical. Equal values may be shown once.

The labels stand for the following.
B1: huNRG1(S177-F229)(NRGE1D)((G4E)2)::G4::huFcSEFL2 (Pb): Fc fusion of NRG1 variant SEQ ID NO:126 (protein)
chain: SHLVKCGESHKSFCVNGGECYMVEGSSIPSRYLCKCPNEFTGDRCQEDFMASFGGGGEGGGGEGGGG[letters of human IgG1 Fc with R292C N297G V302C (EU numbers) not shown]
modifications: huNRG1(S177-F229) (NRGE1D)::(G4S)2::G4::huFcSEFL2 (Pb)
B2: huNRG1(S177-F229)(NRGE1C)::1KmodT482V, M493L)::huFcSEFL2 (Pb): Fc fusion of NRG1 variant SEQ ID NO:117 (protein)
chain: SHLVKCGEKHKSFCVNGGECFMIEGPSNPSRYLCKCPNEFTGDRCQEDFMASFGSGSATGGSGSVASSGSGSATHL[letters of human IgG1 Fc with R292C N297G V302C (EU numbers) not shown]
modifications: huNRG1(S177-F229) (NRGE1C)::1KmodT482V,M493L)::huFcSEFL2 (Pb)
B3: huNRG1(S177-Q237)(1A1)::GG::huFcSEFL2 (Pb): Fc fusion of NRG1 variant SEQ ID NO:144 (protein)
chain: SHLVKCGESEKSFCVNGGECYVIEDSSIPSRFLCKCPNEFTGDRCQNVFLASFYKAEELYQGG[letters of human IgG1 Fc with R292C N297G V302C (EU numbers) not shown]
modifications: huNRG1(S177-Q237)(1A1)::GG::huFcSEFL2 (Pb)
B4: huNRG1(S177-Q237)(1A7)::GG::huFcSEFL2 (Pb): Fc fusion of NRG1 variant SEQ ID NO:146 (protein)
chain: B3 chain with G7A, S9R, E10D, D25H, S26L, I28N, N47K, V48D, L50M
modifications: huNRG1(S177-Q237)(1B4)::GG::huFcSEFL2 (Pb)
B5: huNRG1(S177-Q237)(2E3)::GG::huFcSEFL2 (Pb): Fc fusion of NRG1 variant SEQ ID NO:153 (protein)
chain: B3 chain with S9K, V22M, D25G, S26L, N47D, L50M
modifications: huNRG1(S177-Q237)(2E3)::GG::huFcSEFL2 (Pb)
B6: huNRG1(S177-Q237)(1A12)::GG::huFcSEFL2 (Pb): Fc fusion of NRG1 variant SEQ ID NO:145 (protein)
chain: B3 chain with G7A, S9K, E10H, I23V, D25R, S26P, F32Y, N47K, V48F, L50M
modifications: huNRG1(S177-Q237)(1A12)::GG::huFcSEFL2 (Pb)
B7: huNRG1(S177-Q237)(2F2)::GG::huFcSEFL2 (Pb): Fc fusion of NRG1 variant SEQ ID NO:155 (protein)
chain: B3 chain with G7A, S12T, V22M, D25H, S26P, I28N, L50M
modifications: huNRG1(S177-Q237)(2F2)::GG::huFcSEFL2 (Pb)
B8: huNRG1(S177-Q237)(1B9)::GG::huFcSEFL2 (Pb): Fc fusion of NRG1 variant SEQ ID NO:148 (protein)
chain: B3 chain with G7A, S9K, E10H, Y21F, V22M, I23V, S26L, F32Y, N47D, L50M
modifications: huNRG1(S177-Q237)(1B9)::GG::huFcSEFL2 (Pb)
B9: huNRG1(S177-Q237)(1C11)::GG::huFcSEFL2 (Pb): Fc fusion of NRG1 variant SEQ ID NO:149 (protein)
chain: B3 chain with S9K, S12T, V22M, I23V, D25R, S26P, N47K, V48F, L50M
modifications: huNRG1(S177-Q237)(1C11)::GG::huFcSEFL2 (Pb)
B10: huNRG1(S177-Q237)(1D3)::GG::huFcSEFL2 (Pb): Fc fusion of NRG1 variant SEQ ID NO:151 (protein)
chain: B3 chain with S9N, E10D, Y21F, S26P, F32Y, V48D
modifications: huNRG1(S177-Q237)(1D3)::GG::huFcSEFL2 (Pb)
B11: huNRG1(S177-Q237)(2E4)::GG::huFcSEFL2 (Pb): Fc fusion of NRG1 variant SEQ ID NO:154 (protein)
chain: B3 chain with E10D, Y21F, V22M, I23V, E24K, D25R, S26P, I28N, F32Y, N47K
modifications: huNRG1(S177-Q237)(2E4)::GG::huFcSEFL2 (Pb)
B12: huNRG1(S177-Q237)(1B4)::GG::huFcSEFL2 (Pb): Fc fusion of NRG1 variant SEQ ID NO:147 (protein)
chain: B3 chain with S9R, E10D, S12T, Y21F, V22M, I28N, F32Y, N47K, V48D, L50M
modifications: huNRG1(S177-Q237)(1B4)::GG::huFcSEFL2 (Pb)
B13: huNRG1(S177-Q237)(1D10)::GG::huFcSEFL2 (Pb): Fc fusion of NRG1 variant SEQ ID NO:150 (protein)
chain: B3 chain with G7A, S9R, E10D, S12T, V22M, S26L, F32Y, N47K, V48D, L50M
modifications: huNRG1(S177-Q237)(1D10)::GG::huFcSEFL2 (Pb)
B14: huNRG1(S177-Q237)(1D4)::GG::huFcSEFL2 (Pb): Fc fusion of NRG1 variant SEQ ID NO:152 (protein)
chain: B3 chain with S9R, E10D, S12T, I23V, D25H, I28N, F32Y, N47K, V48F
modifications: huNRG1(S177-Q237)(1D4)::GG::huFcSEFL2 (Pb)

What is called EC50 is the concentration needed to bring the measured effect to its halfway point.

T2 sequence (Q62956 26-1308): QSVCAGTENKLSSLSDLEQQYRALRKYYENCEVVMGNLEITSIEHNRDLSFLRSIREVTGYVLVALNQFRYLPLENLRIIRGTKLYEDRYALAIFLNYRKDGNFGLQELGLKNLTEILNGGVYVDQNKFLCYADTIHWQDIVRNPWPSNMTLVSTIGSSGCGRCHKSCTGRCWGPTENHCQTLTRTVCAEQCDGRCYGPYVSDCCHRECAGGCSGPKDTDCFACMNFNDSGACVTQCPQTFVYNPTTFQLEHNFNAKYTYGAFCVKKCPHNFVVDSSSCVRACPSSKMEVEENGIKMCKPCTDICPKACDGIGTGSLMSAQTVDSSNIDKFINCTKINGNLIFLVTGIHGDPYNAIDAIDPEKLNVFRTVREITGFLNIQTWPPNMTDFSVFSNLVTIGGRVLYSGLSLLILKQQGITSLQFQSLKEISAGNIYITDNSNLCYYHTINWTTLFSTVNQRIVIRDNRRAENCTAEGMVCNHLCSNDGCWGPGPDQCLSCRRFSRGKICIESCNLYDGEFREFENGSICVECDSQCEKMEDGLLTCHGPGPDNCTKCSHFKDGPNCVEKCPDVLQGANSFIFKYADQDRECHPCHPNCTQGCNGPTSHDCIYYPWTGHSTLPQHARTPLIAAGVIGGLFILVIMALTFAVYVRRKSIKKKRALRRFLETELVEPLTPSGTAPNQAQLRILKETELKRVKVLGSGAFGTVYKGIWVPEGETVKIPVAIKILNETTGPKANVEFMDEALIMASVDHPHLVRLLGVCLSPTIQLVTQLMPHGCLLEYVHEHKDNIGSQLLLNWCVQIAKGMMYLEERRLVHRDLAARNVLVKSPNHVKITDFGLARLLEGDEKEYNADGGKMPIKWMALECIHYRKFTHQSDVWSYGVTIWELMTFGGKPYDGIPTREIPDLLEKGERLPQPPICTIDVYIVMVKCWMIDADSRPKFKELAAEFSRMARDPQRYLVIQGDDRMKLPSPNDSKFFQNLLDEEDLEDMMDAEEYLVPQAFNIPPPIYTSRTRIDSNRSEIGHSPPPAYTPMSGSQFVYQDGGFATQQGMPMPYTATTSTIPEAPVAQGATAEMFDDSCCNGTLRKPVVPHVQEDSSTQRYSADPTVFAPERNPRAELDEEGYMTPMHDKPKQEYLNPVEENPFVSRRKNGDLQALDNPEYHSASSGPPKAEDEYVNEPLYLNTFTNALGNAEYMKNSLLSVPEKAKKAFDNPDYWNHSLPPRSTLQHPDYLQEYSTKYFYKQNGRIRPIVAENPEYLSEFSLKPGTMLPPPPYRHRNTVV
T2 sequence (P06494 23-1257 partner): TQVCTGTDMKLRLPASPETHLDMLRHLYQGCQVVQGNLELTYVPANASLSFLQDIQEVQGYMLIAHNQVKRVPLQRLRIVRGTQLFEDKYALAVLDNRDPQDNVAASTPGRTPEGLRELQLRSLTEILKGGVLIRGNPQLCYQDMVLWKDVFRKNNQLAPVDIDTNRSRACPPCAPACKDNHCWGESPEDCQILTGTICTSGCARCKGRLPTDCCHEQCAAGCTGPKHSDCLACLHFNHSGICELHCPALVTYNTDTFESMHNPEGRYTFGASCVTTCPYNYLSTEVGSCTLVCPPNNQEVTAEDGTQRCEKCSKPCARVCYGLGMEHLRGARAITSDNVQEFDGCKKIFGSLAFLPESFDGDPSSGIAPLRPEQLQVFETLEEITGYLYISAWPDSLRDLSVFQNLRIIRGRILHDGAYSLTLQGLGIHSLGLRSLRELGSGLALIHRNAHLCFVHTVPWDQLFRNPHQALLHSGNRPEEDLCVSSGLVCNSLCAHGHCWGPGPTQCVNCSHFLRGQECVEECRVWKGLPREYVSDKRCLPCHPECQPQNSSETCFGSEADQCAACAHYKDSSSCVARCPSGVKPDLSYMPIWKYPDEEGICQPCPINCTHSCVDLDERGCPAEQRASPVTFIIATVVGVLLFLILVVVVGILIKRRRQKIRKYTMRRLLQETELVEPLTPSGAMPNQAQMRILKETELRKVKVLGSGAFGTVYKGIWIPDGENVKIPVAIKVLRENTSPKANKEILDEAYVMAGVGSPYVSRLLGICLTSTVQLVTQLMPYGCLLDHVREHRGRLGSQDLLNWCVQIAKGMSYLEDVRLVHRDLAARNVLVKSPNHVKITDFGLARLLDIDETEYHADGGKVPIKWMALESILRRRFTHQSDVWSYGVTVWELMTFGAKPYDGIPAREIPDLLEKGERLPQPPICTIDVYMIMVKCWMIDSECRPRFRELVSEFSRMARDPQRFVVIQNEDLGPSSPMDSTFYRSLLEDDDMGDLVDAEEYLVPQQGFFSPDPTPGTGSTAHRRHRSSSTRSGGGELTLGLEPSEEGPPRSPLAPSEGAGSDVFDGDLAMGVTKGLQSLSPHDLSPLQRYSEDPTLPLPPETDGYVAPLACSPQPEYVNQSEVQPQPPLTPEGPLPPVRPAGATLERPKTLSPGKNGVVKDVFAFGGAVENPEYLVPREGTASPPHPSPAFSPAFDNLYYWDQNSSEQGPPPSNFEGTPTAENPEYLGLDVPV

For the first experiment, the target named is T1, ErbB3 (Rattus norvegicus, UniProt Q62799).
T1 construct: forming the ErbB2/ErbB4 complex in cardiomyocytes and the ErbB2/ErbB3 complex in Schwann cells; endogenous in cells; host or cells: rat Schwann cells
T1 sequence (Q62799 20-1339): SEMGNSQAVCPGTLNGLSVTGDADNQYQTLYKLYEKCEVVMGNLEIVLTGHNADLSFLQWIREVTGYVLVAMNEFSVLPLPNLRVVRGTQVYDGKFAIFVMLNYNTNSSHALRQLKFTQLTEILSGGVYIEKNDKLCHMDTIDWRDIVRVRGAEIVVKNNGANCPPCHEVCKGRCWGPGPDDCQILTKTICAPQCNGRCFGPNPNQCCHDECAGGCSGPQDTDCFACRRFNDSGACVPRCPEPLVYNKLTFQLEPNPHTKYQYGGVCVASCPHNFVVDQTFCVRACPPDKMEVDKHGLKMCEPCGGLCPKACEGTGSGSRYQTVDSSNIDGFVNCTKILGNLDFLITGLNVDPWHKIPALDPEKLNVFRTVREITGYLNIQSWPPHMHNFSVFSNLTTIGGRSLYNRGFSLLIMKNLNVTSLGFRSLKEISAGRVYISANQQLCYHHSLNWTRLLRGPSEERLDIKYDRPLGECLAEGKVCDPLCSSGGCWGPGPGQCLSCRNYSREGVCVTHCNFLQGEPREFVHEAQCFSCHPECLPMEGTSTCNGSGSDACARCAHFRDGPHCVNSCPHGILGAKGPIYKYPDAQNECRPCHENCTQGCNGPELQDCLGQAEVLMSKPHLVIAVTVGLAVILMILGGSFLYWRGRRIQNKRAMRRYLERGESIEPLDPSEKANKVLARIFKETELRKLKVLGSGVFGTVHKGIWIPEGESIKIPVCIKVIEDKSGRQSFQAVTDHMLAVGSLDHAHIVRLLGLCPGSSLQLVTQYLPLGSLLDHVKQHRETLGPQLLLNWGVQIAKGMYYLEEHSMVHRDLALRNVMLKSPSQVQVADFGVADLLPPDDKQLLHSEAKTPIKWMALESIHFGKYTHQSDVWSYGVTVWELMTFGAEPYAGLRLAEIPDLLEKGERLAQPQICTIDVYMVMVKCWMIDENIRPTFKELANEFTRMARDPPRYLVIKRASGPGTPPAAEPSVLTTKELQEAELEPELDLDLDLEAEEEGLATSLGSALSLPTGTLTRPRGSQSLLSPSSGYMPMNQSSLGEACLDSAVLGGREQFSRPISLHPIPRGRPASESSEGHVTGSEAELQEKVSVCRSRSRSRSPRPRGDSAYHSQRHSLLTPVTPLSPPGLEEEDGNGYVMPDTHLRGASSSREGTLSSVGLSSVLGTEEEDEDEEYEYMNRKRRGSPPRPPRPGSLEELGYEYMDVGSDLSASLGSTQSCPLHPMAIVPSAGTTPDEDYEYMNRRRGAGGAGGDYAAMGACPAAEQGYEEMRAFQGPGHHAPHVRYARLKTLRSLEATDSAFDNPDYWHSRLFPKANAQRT
T1 sequence (P06494 23-1257 partner): as the sequence (P06494 23-1257 partner) above
Nature of the experiment: In vitro phosphorylation of Akt in rat Schwann cells. It counts as cell-based. Particulars: Akt (Serine 473) phosphorylation, 15 minutes treatment. As to the method: (§1) In Vitro Phosphorylation of Akt in Neonatal Rat Cardiomyocytes and Rat Schwann Cells by Neuregulin Variants
(§2) Specificity of neuregulin variants towards cardiomyocytes (ErbB4) versus Schwann cells (ErbB3) was tested by measuring Akt activity generated by formation of the ErbB2/ErbB4 and ErbB2/ErbB3 complexes. Upon activation by neuregulin, the ErbB4 and ErbB3 receptors dimerize preferentially with the ErbB2 co-receptor, forming the ErbB2/ErbB4 complex in cardiomyocytes and the ErbB2/ErbB3 complex in Schwann cells, both of which signal through the Akt pathway. Neonatal rat cardiomyocytes were isolated from hearts of Sprague Dawley rat pups at 0 to 4 days old according to manufacturer's protocol using the Neomyt kit and plated on Surecoat plates in NS media containing serum (all from Cellultron Life Technologies, Baltimore, MD). Rat Schwann cells were plated in Poly-D-Lysine coated plates with Dulbecco's modified Eagle's media (DMEM) supplemented with fetal bovine serum (Thermo Fisher) and forskolin (Millipore Sigma).
(§3) After a 24-hour incubation in a humidified incubator maintained at 37° C. and 5% CO2, cardiomyocytes and Schwann cells were washed with serum free media and incubated an additional 16 hours in DMEM supplemented with bovine serum albumin (Sigma). Both cell lines were then treated with titrations of the neuregulin variant molecules for 15 minutes, upon which cells were lysed in lysis buffer (Meso Scale Discovery (MSD)). For detection of Akt phosphorylation, lysates were added to the Multi-Spot 96-Well 4-Spot Phospho (Serine 473)/Total Akt plates (MSD), incubated according to the manufacturer's protocol and read in the SECTOR Imager 6000 (MSD). For both cell assays, the percent phosphorylation of Akt was calculated by multiplying the phospho Akt signal by 2, then dividing by the phospho Akt signal added to the total Akt signal and then multiplying by 100. The phosphorylation of Akt data points were fitted using a log (agonist) versus response, variable slope (4 parameters) analysis in GraphPad Prism to generate EC50 curves. The CM % agonism reflect the top value of the data points.
Regarding B1, the “Schwann cells (SC) (ErbB3) Avg EC50 (M)” value was “inactive”.

Still in this experiment, the particulars now being: Akt (Serine 473) phosphorylation, 15 minutes treatment, read-out: Schwann cells (SC) (ErbB3) Avg EC50.
Turning to B2, the EC50 is over 10000 nM.

In the case of B3, the EC50 was determined as 9.11 nM.

Consider B4, for which the EC50 amounted to 1000 nM.

As for B5, the EC50 came to 1000 nM.

For the molecule B6, the EC50 was found to be 47.9 nM.

As to B7, the EC50 was found to be 202 nM.

Take B8: the EC50 was 1000 nM.

For B9, the EC50 worked out at 87 nM.

With B10, the EC50 is 10000 nM and > 10000 nM.

Take B11: the EC50 came out at 61.5 nM.

For the molecule B12, the EC50 came to 10000 nM.

As for B13, the EC50 is over 3000 nM.

B1: the half-maximal effective concentration (EC50) is over 10000 nM.

The next experiment has as its target T2, ErbB4 (Rattus norvegicus, UniProt Q62956).
T2 construct: forming the ErbB2/ErbB4 complex in cardiomyocytes and the ErbB2/ErbB3 complex in Schwann cells; endogenous in cells; host or cells: primary neonatal rat cardiomyocytes (Sprague Dawley pups, 0 to 4 days old)
Briefly: In vitro phosphorylation of Akt in neonatal rat cardiomyocytes. Type of experiment: cell-based. As to conditions: Akt (Serine 473) phosphorylation, neonatal rat cardiomyocytes, 15 minutes treatment; listed as huNRG1(S177-F229)(NRGE1D)((G4E)2:G4)::huFcSEFL2 (Pb); read-out: Cardiomyocyte (CM) (ErbB4) Avg EC50. The method, then: as §1, §2, §3
Regarding B1, the EC50 stood at 0.079 nM.

The experiment is the same for the next values; noted with them: Akt (Serine 473) phosphorylation, neonatal rat cardiomyocytes, 15 minutes treatment; read-out: Cardiomyocyte (CM) (ErbB4) Avg EC50.
With B2, the EC50 is 0.4 nM.

Turning to B3, the EC50 was found to be 0.133 nM.

For B4, the EC50 was 0.619 nM.

With B5, the EC50 is 0.658 nM.

B14: the EC50 was 0.924 nM and 0.576 nM.

B6: the EC50 is 0.722 nM.

With B7, the EC50 was 0.244 nM.

Take B8: the EC50 amounted to 1.92 nM.

As to B9, the concentration giving a half-maximal response (EC50) stood at 1.1 nM.

Consider B11, for which the EC50 stood at 0.429 nM.

On to B12, for which the EC50 stood at 0.996 nM.

Regarding B13, the EC50 turned out to be 0.741 nM.

Consider B1, for which the EC50 worked out at 0.28 nM.

The same experiment, now with this note: ratio of EC50s Schwann cells/cardiomyocytes.
On to B2, for which the “Selectivity SC/CM” value is given as over 10000.

As to B3, the “Selectivity SC/CM” value stood at 69.

B4: the “Selectivity SC/CM” value came out at 1616.

With B5, the “Selectivity SC/CM” value came to 1521.

For the molecule B6, the “Selectivity SC/CM” value amounted to 66.

B7: the “Selectivity SC/CM” value came out at 826.

With B8, the “Selectivity SC/CM” value worked out at 520.

For the molecule B9, the “Selectivity SC/CM” value is 79.

For B10, the “Selectivity SC/CM” value is >10000 and >6170.

On to B11, for which the “Selectivity SC/CM” value worked out at 143.

For B12, the “Selectivity SC/CM” value is reported as over 10000.

Consider B13, for which the “Selectivity SC/CM” value is reported as over 4000.

B1: the “Selectivity SC/CM” value is on record as over 10000.

Staying with this experiment, now noted: top value of the Akt phosphorylation data points in cardiomyocytes; wild-type control 100.
Turning to B2, the “CM % Agonism AVG” value is 75.8%.

Turning to B3, the “CM % Agonism AVG” value was “Full”.

Turning to B4, the “CM % Agonism AVG” value is “Full”.

For B14, the “CM % Agonism AVG” value is on record as “Full”.

Consider B6, for which the “CM % Agonism AVG” value was “Full”.

Regarding B7, the “CM % Agonism AVG” value is “Full”.

Regarding B9, the “CM % Agonism AVG” value is reported as “Full”.

With B11, the “CM % Agonism AVG” value is given as “Full”.

As to B12, the “CM % Agonism AVG” value is recorded as “Full”.

As for B13, the “CM % Agonism AVG” value is on record as “Full”.

Regarding B1, the “CM % Agonism AVG” value came out at 84.6%.

The experiment is the same for the next values; noted with them: top value of the Akt phosphorylation data points in cardiomyocytes; wild-type control 100; listed as huNRG1(S177-F229)(NRGE1D)((G4E)2:G4)::huFcSEFL2 (Pb).
Turning to B1, the “CM % Agonism AVG” value is reported as 88.2%.
